Measurements published in PubChem BioAssay AID1508649 (National Center for Advancing Translational Sciences (NCATS), 2021).
Screen size: about 43,000 compounds; about 830 (1.9%) were called active. Inconclusive means that the source gave no clear call. Such entries were picked first, then a sample of the others. How the source made its calls: active means clear falling dose curves in both reporters; inconclusive means both reporters move, but less clearly or upward; inactive means either reporter flat; the % is the NLuc reporter signal. Potencies of inconclusive entries are left out as doubtful fits.

test: Cell-based coincidence reporter assay to measure PMP22 gene transcription in S16 Pmp22-F2sN cells - Primary screen; conditions: S16 Pmp22-F2sN Schwann cells (luciferase reporters placed in the Pmp22 gene), FLuc/NLuc coincidence luminescence, 24 h; measured here: NLuc reporter readout, at 57.5 µM (top of the series)
Outline: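 Rat S16 Pmp22-F2sN cells, 500-1,000/well in phenol red-free DMEM + 10% FBS, compound-treated 24 h (37C, 5% CO2). Luminescence: FLuc read, Stop&Glo added, NLuc read.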
Potency means the concentration at half of the fitted maximal effect; tags describe the fitted curve by direction and shape.

Row | SMILES | Potency
1 | Cc1ccccc1NC(=O)N1CCc2cc(S(=O)(=O)N3CCC(C)CC3)ccc21 | inconclusive [phenotype inactive, partial curve, poor fit]
2 | COCCN1Cc2cccc(C(=O)Nc3ccc(C)c(F)c3)c2C1=O | inactive
3 | CCOC(=O)CN(Cc1ccccc1)C(C(=O)NC1CCCCC1)c1ccc(C)cc1 (centres undefined) | inconclusive [phenotype inactive, partial curve, poor fit]
4 | O=C(NCc1ccc(F)cc1)c1cc(Sc2ccc(F)cc2F)nc2ccccc12 | inactive
5 | Cc1cc2oc(C(=O)N(Cc3ccccc3)C3CCS(=O)(=O)C3)cc(=O)c2cc1C (centres undefined) | inconclusive [phenotype inactive, single point]
6 | CCN1Cc2cccc(C(=O)Nc3ccc(F)cc3)c2C1=O | inconclusive [phenotype inactive, single point]
7 | Cc1ccc(-c2csc(=Nc3ccccc3)n2CCCO)cc1 | inconclusive [phenotype inactive, single point]
8 | CCn1cc2nc(SCc3cccc(C(F)(F)F)c3)n(CCc3ccccc3)c(=O)c2n1 | inconclusive [phenotype inactive, single point]
9 | O=C(Cn1c(=O)n(Cc2ccc(F)cc2)c(=O)c2sc3ccccc3c21)NCc1ccccc1Cl | inactive
10 | COc1ccc(N2CCN(CCCNC(=O)Nc3ccccc3Cl)CC2)cc1 | inactive
11 | N#Cc1ccc(C(=O)Nc2ccc(Cl)c(-c3nc4cc(Cl)ccc4o3)c2)c(F)c1 | inconclusive [phenotype inactive, single point]
12 | Cc1ccc(NC(=O)C2Cc3ccccc3N2C(=O)c2ccccc2)cc1Cl (centres undefined) | inconclusive [phenotype inactive, single point]
13 | COc1ccc(F)cc1S(=O)(=O)NCCc1csc(-c2ccc(Cl)cc2)n1 | inconclusive [phenotype inactive, single point]
14 | CN(C1CCCCC1)S(=O)(=O)c1ccc(C(=O)Nc2sc3c(c2C(N)=O)CC(C)(C)NC3(C)C)cc1 | inconclusive [phenotype inactive, single point]
15 | Cc1cccc(NC(=O)Cn2nc(-c3ccc(Cl)cc3)c3ccccc3c2=O)c1 | inconclusive [phenotype inactive, single point]
16 | Cc1ccc(-n2c(SCc3ccccc3F)nc3[nH]ncc3c2=O)cc1C | inconclusive [phenotype inactive, partial curve]
17 | COC(=O)c1c(SCC(=O)Nc2cccc(C(F)(F)F)c2)[nH]c2ccccc2c1=O | inactive
18 | CCOC(=O)c1ccc(N2C(=O)c3n[nH]c(-c4cccs4)c3C2c2ccc(O)c(OC)c2)cc1 (centres undefined) | active: 16 µM
19 | COC(=O)c1cccc(NC(=O)Nc2cc(C(=O)NCc3cccc(F)c3)ccc2N2CCCC2)c1 | inconclusive [phenotype inactive, single point]
20 | O=C(CSc1nc(=O)n(Cc2cccnc2)c2c1CCC2)Nc1ccc(F)cc1F | inactive

Row | SMILES | Potency
21 | COC(=O)c1cc(NC(=O)CCc2c(C)nc3cc(-c4ccccc4)nn3c2C)cc(C(=O)OC)c1 | inactive
22 | Cc1cccc(NC(=O)Cn2c(C(F)(F)F)nc3ccccc32)c1C | inconclusive [phenotype inactive, single point]
23 | CCCCN(C)CCNC(=O)c1ccc2c(c1)NC(=O)CN2 | inconclusive [phenotype inactive, single point]
24 | Cc1cccn2c(=O)c3cc(C(=O)N(Cc4ccccc4)C(C)C)sc3nc12 | inconclusive [phenotype inactive, single point]
25 | CC(C)c1ccc(NC(=O)CCNS(=O)(=O)c2ccc3c(c2)CCCC(=O)N3)cc1 | inconclusive [phenotype inactive, single point]
26 | CCOC(=O)C1=C(CN(CC)Cc2ccccc2)NC(=O)NC1c1ccc(OC(C)C)cc1 (centres undefined) | inconclusive [phenotype inactive, single point]
27 | CC(C)OCc1cc(CN2CCN(c3ccccc3)CC2)c(O)c2ncccc12 | active: 5.12 µM
28 | COc1ccc(-c2cc(C(F)(F)F)nc(SCC(=O)NCc3ccc(Cl)cc3)n2)cc1 | inconclusive [phenotype inactive, single point]
29 | COc1ccc(OC)c(NC(=O)CN2CCCN(Cc3cc(C)ccc3C)S2(=O)=O)c1 | inconclusive [phenotype inactive, single point]
30 | CCOc1ccc(CCNC(=O)c2cnc3sc(N4CCCCCC4)nn3c2=O)cc1 | inconclusive [phenotype inactive, partial curve, poor fit]
31 | Cc1cc(C)cc(Nc2cc(C(=O)NCc3ccccc3)c3ccccc3n2)c1 | inconclusive [phenotype inactive, single point]
32 | O=C(c1cn(CCOc2ccc(Cl)cc2)c2ccccc12)C1CCCCC1 | inconclusive [phenotype inactive, single point]
33 | Cc1cc(=O)n2nc(N3CCC(C(=O)Nc4ccc(Br)cc4F)CC3)sc2n1 | inactive
34 | CCOC(=O)c1cccc(NC(=O)c2cc3cc4ccc(C)cc4nc3s2)c1 | active: 11.3 µM
35 | Cc1ccc(C)c(Cn2c3ccccc3c3cnn(CC(=O)NC(C)c4ccccc4)c(=O)c32)c1 (centres undefined) | inconclusive [phenotype inactive, single point]
36 | CCc1ccc(C2NC(=O)c3[nH]nc(-c4cccc(OC)c4)c32)cc1 (centres undefined) | inconclusive [phenotype inactive, single point]
37 | CCOc1ccccc1NC(=O)COc1ccc(S(=O)(=O)NC2CCCCC2)cc1 | inconclusive [phenotype inactive, single point]
38 | CCOc1ccccc1CNC(=O)c1cc(-c2ccc(C)c(C)c2)nc2ccccc12 | inconclusive [phenotype inactive, single point]
39 | Cc1ccc(O)c(NC(=O)CCS(=O)(=O)c2nc(-c3ccc4c(c3)OCO4)cc(C(F)(F)F)n2)c1 | inconclusive [phenotype inactive, partial curve]
40 | O=S(=O)(c1ccccc1)c1nc(-c2ccc(F)cc2)oc1N1CCCCCC1 | inconclusive [phenotype inactive, partial curve, poor fit]

Row | SMILES | Potency
41 | CCOc1ccc(C(=O)c2cn(Cc3ccc(F)cc3)c3ccc(F)cc3c2=O)cc1 | inconclusive [phenotype inactive, single point]
42 | Cc1ccc(-c2cc(C(=O)N3CCN(S(=O)(=O)c4ccc(Br)s4)CC3)[nH]n2)cc1C | inconclusive [phenotype inactive, single point]
43 | O=C(CCCCCn1c(=O)[nH]c2ccccc2c1=O)N1CCN(c2ccc(Cl)cc2)CC1 | inconclusive [phenotype inactive, single point]
44 | CCCN1CCc2nc(SCC(=O)Nc3ccc(C)c(Cl)c3)[nH]c(=O)c2C1 | inconclusive [phenotype inactive, single point]
45 | Cc1cc(N2CCN(c3cccc(C(F)(F)F)c3)CC2)n2nc(-c3ccccc3C)nc2n1 | active: 16.3 µM
46 | CCOc1ccc(NC(=O)Cn2c(=O)cc(C)c3c(C)nn(C)c32)cc1 | inactive
47 | O=C(CN1C(=O)CC(c2ccco2)Sc2ccccc21)Nc1cccc(C(F)(F)F)c1 (centres undefined) | inconclusive [phenotype inactive, single point]
48 | CCc1ccc(CNC(=O)c2cnc(N3CCCCC3)c3ccccc23)cc1 | inactive
49 | COc1ccc(C(=O)Nc2nc(-c3nnn(-c4ccc(F)cc4F)c3C)ns2)cc1 | inconclusive [phenotype inactive, single point]
50 | Cc1cc(C)n(CC(=O)Nc2cc(F)ccc2F)c(=O)c1C#N | inactive
51 | CC(C)Cc1nn2c(=O)cc(COC(=O)c3cccc(NS(C)(=O)=O)c3)nc2s1 | inconclusive [phenotype inactive, partial curve, poor fit]
52 | Cc1nc(-c2ccc(F)cc2)sc1CCNC(=O)c1ccc(OC(C)C)cc1 | inconclusive [phenotype inactive, partial curve, poor fit]
53 | CC(=O)c1ccc(NC(=O)c2cc(S(=O)(=O)N3CCOCC3)ccc2C)cc1 | inconclusive [phenotype inactive, single point]
54 | CC(C)N1CCc2c(sc(NC(=O)c3ccc(S(=O)(=O)N(C)C4CCCCC4)cc3)c2C(N)=O)C1 | inconclusive [phenotype inactive, single point]
55 | CCN(CC)CCn1c(=N)n(CCOc2ccccc2Cl)c2ccccc21 | inconclusive [phenotype inactive, partial curve]
56 | O=C1CN(C(=O)c2ccc(S(=O)(=O)N3CCCCC3)cc2)C(c2ccc(F)cc2)c2cc(Cl)ccc2N1 (centres undefined) | inactive
57 | Cc1ccc2nc(-c3ccc(Cl)cc3)cc(C(=O)OCC(=O)c3ccccc3)c2c1 | inconclusive [phenotype inactive, single point]
58 | CCSc1ncc(Cl)c(C(=O)Nc2c(C(=O)Nc3cccc(C)c3)oc3ccccc23)n1 | inactive
59 | Cc1cccc(NCc2nc3ccccc3n2CCOc2ccccc2C)c1 | inconclusive [phenotype inactive, single point]
